Source: the supplement of paper PMC8728848
The other results are listed elsewhere or left out.

Assays:
Assay in all cases: glycan array binding signal (z-score within array); higher = stronger binding
Settings in all cases: glycan notation: IUPAC condensed, linker removed
Gal6S(b1-4)Glc6S = biological target: Gal6S(b1-4)Glc6S
In short: (§1)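 Glycan array data came from 3228 arrays in the Consortium for Functional Glycomics database, and only arrays with an available protein sequence were kept. Glycan names were put into IUPAC-condensed notation, and columns mapping to the same glycan were averaged. The binding signal is a within-array Z-score, averaged across arrays of one protein sequence run at different concentrations or buffers and across linkers. A negative Z-score can be read as non-binding.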

Gal6S(b1-4)GlcNAc = biological target: Gal6S(b1-4)GlcNAc
In short: as §1

Gal6S(b1-4)GlcNAc6S = biological target: Gal6S(b1-4)GlcNAc6S
In short: as §1

GalNAc(a1-3)Gal = biological target: GalNAc(a1-3)Gal
In short: as §1

GalNAc(a1-3)GalNAc = biological target: GalNAc(a1-3)GalNAc
In short: as §1

[1] = biological target: GalNAc(a1-3)GalNAc(b1-3)Gal(a1-4)Gal(b1-4)Glc
In short: as §1

[2] = biological target: GalNAc(a1-3)GalNAc(b1-3)Gal(a1-4)Gal(b1-4)GlcNAc
In short: as §1

GalNAc(b1-3)Gal = biological target: GalNAc(b1-3)Gal
In short: as §1

[3] = biological target: GalNAc(b1-3)Gal(a1-4)Gal(b1-4)GlcNAc
In short: as §1

[4] = biological target: GalNAc(b1-3)Gal(a1-4)Gal(b1-4)GlcNAc(b1-3)Gal(b1-4)Glc
In short: as §1

[5] = biological target: GalNAc(b1-3)Gal(a1-6)Gal(b1-4)Glc
In short: as §1

GalNAc(b1-3)GalNAc = biological target: GalNAc(b1-3)GalNAc
In short: as §1

GalNAc(b1-3)GlcNAc = biological target: GalNAc(b1-3)GlcNAc
In short: as §1

GalNAc(b1-4)Gal(b1-4)Glc = biological target: GalNAc(b1-4)Gal(b1-4)Glc
In short: as §1

GalNAc(b1-4)GlcNAc = biological target: GalNAc(b1-4)GlcNAc
In short: as §1

[6] = biological target: GalNAc(b1-4)GlcNAc(b1-2)Man
In short: as §1

[7] = biological target: GalNAc(b1-4)GlcNAc(b1-2)Man(a1-3)[GalNAc(b1-4)GlcNAc(b1-2)Man(a1-6)]Man(b1-4)GlcNAc(b1-4)GlcNAc
In short: as §1

[8] = biological target: GalNAc(b1-4)GlcNAc(b1-3)GalNAc(b1-4)GlcNAc
In short: as §1

GalNAc(b1-4)GlcNAc6S = biological target: GalNAc(b1-4)GlcNAc6S
In short: as §1

GalNAc(b1-6)GalNAc = biological target: GalNAc(b1-6)GalNAc
In short: as §1

GalNAc3S(b1-4)GlcNAc = biological target: GalNAc3S(b1-4)GlcNAc
In short: as §1

GalNAc3S(b1-4)GlcNAc3S = biological target: GalNAc3S(b1-4)GlcNAc3S
In short: as §1

[9] = biological target: GalNAc3S(b1-4)[Fuc(a1-3)]GlcNAc
In short: as §1

GalNAc4S6S(b1-4)GlcNAc = biological target: GalNAc4S6S(b1-4)GlcNAc
In short: as §1

GalNAc6S(b1-4)GlcNAc = biological target: GalNAc6S(b1-4)GlcNAc
In short: as §1

Glc(a1-4)Glc = biological target: Glc(a1-4)Glc
In short: as §1

[10] = biological target: Glc(a1-4)Glc(a1-4)Glc(a1-4)Glc
In short: as §1

Glc(a1-6)Glc(a1-6)Glc = biological target: Glc(a1-6)Glc(a1-6)Glc
In short: as §1

[11] = biological target: Glc(a1-6)Glc(a1-6)Glc(a1-6)Glc
In short: as §1

Glc(b1-4)Glc = biological target: Glc(b1-4)Glc
In short: as §1

Glc(b1-6)Glc = biological target: Glc(b1-6)Glc
In short: as §1

GlcA(b1-3)Gal = biological target: GlcA(b1-3)Gal
In short: as §1

GlcA(b1-3)GlcNAc = biological target: GlcA(b1-3)GlcNAc
In short: as §1

GlcA(b1-6)Gal = biological target: GlcA(b1-6)Gal
In short: as §1

[12] = biological target: GlcA3S(b1-3)Gal(b1-4)GlcNAc(b1-2)Man
In short: as §1

[13] = biological target: GlcA3S(b1-3)Gal(b1-4)GlcNAc(b1-3)Gal(b1-4)Glc
In short: as §1

[14] = biological target: GlcNAc(a1-3)Gal(b1-4)GlcNAc
In short: as §1

[15] = biological target: GlcNAc(a1-4)Gal(b1-3)GlcNAc
In short: as §1

[16] = biological target: GlcNAc(a1-4)Gal(b1-4)GalNAc
In short: as §1

[17] = biological target: GlcNAc(a1-4)Gal(b1-4)GlcNAc
In short: as §1

[18] = biological target: GlcNAc(a1-4)Gal(b1-4)GlcNAc(b1-3)Gal(b1-4)Glc
In short: as §1

[19] = biological target: GlcNAc(a1-4)Gal(b1-4)GlcNAc(b1-3)Gal(b1-4)GlcNAc
In short: as §1

[20] = biological target: GlcNAc(a1-4)Gal(b1-4)GlcNAc(b1-3)Gal(b1-4)GlcNAc(b1-3)Gal(b1-4)GlcNAc
In short: as §1

[21] = biological target: GlcNAc(a1-4)Gal(b1-4)GlcNAc(b1-3)Gal(b1-4)[Fuc(a1-3)]GlcNAc(b1-3)Gal(b1-4)[Fuc(a1-3)]GlcNAc
In short: as §1

[22] = biological target: GlcNAc(a1-6)Gal(b1-4)GlcNAc
In short: as §1

B1: Cohesin-hDCIR (Homo sapiens) (protein)
chain: LDDLDAVRIKVDTVNAKPGDTVRIPVRFSGIPSKGIANCDFVYSYDPNVLEIIEIEPGDIIVDPNPDKSFDTAVYPDRKIIVFLFAEDSGTGAYAITKDGVFATIVAKVKEGAPNGLSVIKFVEVGGFANNDLVEQKTQFFDGGANVGDTTEPATPTTPVTTPTTTDDLDAASQKYSQLLEKKTTKELVHTTLECVKKNMPVEETAWSCCPKNWKSFSSNCYFISTESASWQDSEKDCARMEAHLLVINTQEEQDFIFQNLQEESAYFVGLSDPEGQRHWQWVDQTPYNESSTFWHPREPSDPNERCVVLNFRKSPKRWGWNDVNCLGPQRSVCEMMKIHLHHHHHH
- glycan array binding signal (z-score) (Gal6S(b1-4)Glc6S): -0.146
- glycan array binding signal (z-score) (Gal6S(b1-4)GlcNAc): -0.57
- glycan array binding signal (z-score) (Gal6S(b1-4)GlcNAc6S): -0.18
- glycan array binding signal (z-score) (GalNAc(a1-3)Gal): 1.17
- glycan array binding signal (z-score) (GalNAc(a1-3)GalNAc): -0.465
- glycan array binding signal (z-score) [1]: -0.654
- glycan array binding signal (z-score) [2]: -0.219
- glycan array binding signal (z-score) (GalNAc(b1-3)Gal): 3.75
- glycan array binding signal (z-score) [3]: 2.57
- glycan array binding signal (z-score) [4]: 4.3
- glycan array binding signal (z-score) [5]: 5.47
- glycan array binding signal (z-score) (GalNAc(b1-3)GalNAc): -0.319
- glycan array binding signal (z-score) (GalNAc(b1-3)GlcNAc): 1.57
- glycan array binding signal (z-score) (GalNAc(b1-4)Gal(b1-4)Glc): -0.229
- glycan array binding signal (z-score) (GalNAc(b1-4)GlcNAc): 1.98
- glycan array binding signal (z-score) [6]: 2.08
- glycan array binding signal (z-score) [7]: 0.532
- glycan array binding signal (z-score) [8]: 2.71
- glycan array binding signal (z-score) (GalNAc(b1-4)GlcNAc6S): 0.86
- glycan array binding signal (z-score) (GalNAc(b1-6)GalNAc): -0.562
- glycan array binding signal (z-score) (GalNAc3S(b1-4)GlcNAc): -0.389
- glycan array binding signal (z-score) (GalNAc3S(b1-4)GlcNAc3S): -0.554
- glycan array binding signal (z-score) [9]: -0.581
- glycan array binding signal (z-score) (GalNAc4S6S(b1-4)GlcNAc): -0.659
- glycan array binding signal (z-score) (GalNAc6S(b1-4)GlcNAc): 0.617
- glycan array binding signal (z-score) (Glc(a1-4)Glc): -0.166
- glycan array binding signal (z-score) [10]: -0.332
- glycan array binding signal (z-score) (Glc(a1-6)Glc(a1-6)Glc): -0.491
- glycan array binding signal (z-score) [11]: -0.038
- glycan array binding signal (z-score) (Glc(b1-4)Glc): -0.296
- glycan array binding signal (z-score) (Glc(b1-6)Glc): 0.363
- glycan array binding signal (z-score) (GlcA(b1-3)Gal): -0.632
- glycan array binding signal (z-score) (GlcA(b1-3)GlcNAc): -0.242
- glycan array binding signal (z-score) (GlcA(b1-6)Gal): -0.525
- glycan array binding signal (z-score) [12]: -0.525
- glycan array binding signal (z-score) [13]: -0.485
- glycan array binding signal (z-score) [14]: -0.109
- glycan array binding signal (z-score) [15]: -0.685
- glycan array binding signal (z-score) [16]: -0.538
- glycan array binding signal (z-score) [17]: -0.662
- glycan array binding signal (z-score) [18]: -0.696
- glycan array binding signal (z-score) [19]: -0.651
- glycan array binding signal (z-score) [20]: -0.668
- glycan array binding signal (z-score) [21]: -0.521
- glycan array binding signal (z-score) [22]: -0.307
